Results: DBAASP

Assays:
Assay in all cases: ≥ marks a high value that may be exact or a test limit, other limits are often not marked
[1] = test system: Bacillus megaterium KCTC 1096
[2] = test system: Escherichia coli KCTC 1682
[3] = test system: Candida albicans KCTC 7121
[4] = test system: Staphylococcus aureus KCTC 1621
[5] = test system: Proteus vulgaris
[6] = test system: Pseudomonas aeruginosa KCTC 1637
[7] = test system: Bacillus subtilis KCTC 1918
[8] = test system: Aspergillus flavus KCTC 7375
[9] = test system: Trichosporon beigelii KCTC 7251
[10] = test system: Fusarium oxysporum KCTC 6084
[11] = test system: Pseudomonas aeruginosa ATCC 27853
[12] = test system: Escherichia coli ATCC 25922
[13] = test system: Bacillus subtilis
[14] = test system: Staphylococcus aureus
[15] = test system: Staphylococcus aureus ATCC 25923
[16] = test system: Escherichia coli
[17] = test system: Enterobacter cloacae
[18] = test system: Pseudomonas aeruginosa
[19] = test system: Salmonella enterica subsp. enterica serovar Typhi
[20] = test system: Candida albicans ATCC 90028
[21] = test system: Burkholderia thailandensis
[22] = test system: Escherichia coli K91BK
[23] = test system: Bacillus subtilis var. niger ATCC 9372

| SMILES | MIC [11] | MIC [12] | MIC [13] | MIC [14] | MIC [15] | MIC [16] | MIC [17] | MIC [18] | MIC [19] | MIC [20] | other results |
| --- | --- | --- | --- | --- | --- | --- | --- | --- | --- | --- | --- |
| CC[C@H](C)[C@H](NC(=O)[C@H](CCCCN)NC(=O)[C@H](CCCCN)NC(=O)[C@H](Cc1ccccc1)NC(=O)[C@H](CC(C)C)NC(=O)[C@H](CCCCN)NC(=O)[C@H](Cc1c[nH]c2ccccc12)NC(=O)[C@@H](N)CCCCN)C(=O)N1CCC[C@H]1C(=O)N[C@@H](CCCCN)C(=O)N[C@@H](Cc1ccccc1)C(=O)N[C@@H](CC(C)C)C(=O)N[C@@H](Cc1cnc[nH]1)C(N)=O [KWKLFKKIPKFLH] |  |  |  |  |  |  |  |  |  |  | MIC [1]: 3.12 µM (≈ 5.35 µg/mL); MIC [2]: 6.25 µM (≈ 10.7 µg/mL); MIC [3]: ≥ 100 µM; MIC [4]: 6.25 µM (≈ 10.7 µg/mL); MIC [5]: 3.12 µM (≈ 5.35 µg/mL); MIC [6]: 8.84 µM (≈ 15.1 µg/mL); MIC [7]: 1.56 µM (≈ 2.67 µg/mL); MIC [8]: ≥ 200 µM; MIC [9]: ≥ 100 µM; MIC [10]: ≥ 200 µM |
| CC(C)C[C@H](NC(=O)[C@H](CCCCN)NC(=O)[C@H](CCCN=C(N)N)NC(=O)[C@H](Cc1ccccc1)NC(=O)[C@H](Cc1ccccc1)NC(=O)[C@H](CCCCN)NC(=O)[C@H](CCCCN)NC(=O)[C@H](Cc1ccccc1)NC(=O)[C@H](CCCN=C(N)N)NC(=O)[C@H](CCCCN)NC(=O)[C@@H](NC(=O)[C@@H](N)CC(C)C)C(C)C)C(=O)N[C@@H](CCCCN)C(=O)N[C@@H](CCCCN)C(=O)N[C@@H](CO)C(N)=O [LVKRFKKFFRKLKKS] | 65.5 µM (≈ 128 µg/mL) | 32.8 µM (≈ 64 µg/mL) | ≥ 32.8 µM | 65.5 µM (≈ 128 µg/mL) | 1.02 µM (≈ 2 µg/mL) | 16.4 µM (≈ 32 µg/mL) | ≥ 131 µM | 4.1 µM (≈ 8 µg/mL) | 4.1 µM (≈ 8 µg/mL) | ≥ 32.8 µM |  |
| CC[C@H](C)[C@H](NC(=O)[C@H](CCCCN)NC(=O)[C@H](CCCN=C(N)N)NC(=O)CNC(=O)[C@H](CC(C)C)NC(=O)[C@H](CCCN=C(N)N)NC(=O)[C@H](CCCN=C(N)N)NC(=O)[C@H](CC(C)C)NC(=O)CNC(=O)[C@H](CCCN=C(N)N)NC(C)=O)C(=O)N[C@@H](C)C(=O)N[C@@H](Cc1cnc[nH]1)C(=O)NCC(=O)N[C@H](C(=O)N[C@@H](CCCCN)C(=O)N[C@@H](CCCCN)C(=O)N[C@@H](Cc1ccc(O)cc1)C(=O)NCC(=O)N1CCC[C@H]1C(=O)N[C@H](C(=O)N[C@H](C(=O)N[C@@H](CCCCN)C(=O)N[C@@H](CCCN=C(N)N)C(=O)N[C@H](C(=O)N[C@@H](CCCCN)C(=O)N[C@@H](CCCN=C(N)N)C(=O)N[C@@H](CCCCN)C(=O)N[C@@H](C)C(N)=O)[C@@H](C)CC)C(C)C)[C@@H](C)O)C(C)C [RGLRRLGRKIAHGVKKYGPTVKRIKRKA] |  |  |  |  |  |  |  |  |  |  | MIC [21]: ≥ 100 µM; MIC [22]: ≥ 100 µM; MIC [23]: 12.5 µM (≈ 41.1 µg/mL) |
| CC(C)C[C@H](NC(=O)[C@H](CCCCN)NC(=O)[C@H](CCCCN)NC(=O)[C@@H](NC(=O)[C@H](CO)NC(=O)[C@H](CCCCN)NC(=O)[C@H](CCCCN)NC(=O)[C@H](CC(C)C)NC(=O)[C@H](CCCCN)NC(=O)[C@H](CCCN=C(N)N)NC(=O)[C@H](Cc1ccccc1)NC(=O)[C@H](Cc1ccccc1)NC(=O)[C@H](CCCCN)NC(=O)[C@H](CCCCN)NC(=O)[C@H](Cc1ccccc1)NC(=O)[C@H](CCCN=C(N)N)NC(=O)[C@H](CCCCN)NC(=O)[C@@H](N)C(C)C)C(C)C)C(N)=O [VKRFKKFFRKLKKSVKKL] | 27.7 µM (≈ 64 µg/mL) | 13.9 µM (≈ 32 µg/mL) | 27.7 µM (≈ 64 µg/mL) | 55.4 µM (≈ 128 µg/mL) | 1.73 µM (≈ 4 µg/mL) | 27.7 µM (≈ 64 µg/mL) | 13.9 µM (≈ 32 µg/mL) | 6.93 µM (≈ 16 µg/mL) | 1.73 µM (≈ 4 µg/mL) | 27.7 µM (≈ 64 µg/mL) |  |

≈ marks a conversion by molar mass, not a printed value.
